Where “and” joins values, the source holds several entries; their conditions need not be identical. Equal entries are not always repeated. In all, about 48,000 compounds went through this assay and about 1,200 (2.5%) were called active. About 2% were inconclusive and are not listed.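 Rule for the calls: active = activation of at least 60% and not above a set upper limit (about 1 call in 100 departs from these limits); inconclusive = activation of 40% to 60%, or above that upper limit; inactive = activation under 40%.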 The list shows a part of the results.
The molecules below were run against Probable G-protein coupled receptor 32 (Homo sapiens) (UniProt O75388) (assay: qHTS for Agonists of Human Resolvin D1 Receptor DRV1). Details: CHO-K1 GPR32 beta-arrestin PathHunter luminescence, 90 min; at 76.9 µM; stronger effect = higher value; zero percent set by DMSO-only wells.
UniProt O75388, sequence (O75388 whole entry, looked up): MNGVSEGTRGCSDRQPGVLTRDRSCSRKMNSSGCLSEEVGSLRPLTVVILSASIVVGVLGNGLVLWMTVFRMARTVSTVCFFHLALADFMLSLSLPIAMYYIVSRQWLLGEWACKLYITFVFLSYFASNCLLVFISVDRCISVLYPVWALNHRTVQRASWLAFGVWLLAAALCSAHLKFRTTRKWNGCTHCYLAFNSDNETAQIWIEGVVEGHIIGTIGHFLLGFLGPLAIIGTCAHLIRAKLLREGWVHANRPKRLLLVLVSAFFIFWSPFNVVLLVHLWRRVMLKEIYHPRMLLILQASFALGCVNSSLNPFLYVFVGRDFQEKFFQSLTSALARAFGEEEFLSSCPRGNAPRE
Summary of the method: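 Luminescent readout of beta-Gal complementation quantifies ligand-induced beta-arrestin association with GPR32 in CHO-K1 cells; 90 min compound incubation at 37 °C, detection 1 h at room temperature.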
`CCOc1ccc(CNC(=O)C2CCN(Cc3cc4ccccc4n3Cc3ccccc3C)CC2)cc1` was tested, and the activation was inactive: -24.7%. `CN(C)CCOC(c1ccccc1)c1ccccc1` was tested, and the activation was inactive: 12% and inactive: 8.95%. With `Cc1ccc(NC(=O)C(=O)NCCCN2CCOCC2)cc1C` the activation was inactive: -6.07%. In the case of `Cc1cccc(NC(=O)C2(C)Cc3ccccc3C(=O)O2)c1` (stereo not drawn), the activation is reported as inactive: -5.12%. `CC(=O)Nc1ccc2nc(SCCOc3ccccc3)sc2c1` was tested, and the activation was active: 118%. `CCc1ccc(CN(Cc2ccco2)C(=O)COc2ccc(Cl)cc2C)cc1` was tested, and the activation was inactive: -23.6%. For `Cc1c(CNC2CCCCCC2)c(C(=O)O)c(C)n1Cc1ccc(F)cc1`, the activation was inactive: -0.777%. In the case of `COc1ccccc1N1CCN(C(=O)Cn2c(=O)n3nc(-c4cccc(C)c4)nc3c3ccccc32)CC1`, the activation is reported as inactive: -0.38%. For `COc1ccc(CCNC(=O)c2c(C)nn(-c3ccc(F)cc3)c2-n2cccc2)c(OC)c1OC`, the activation was inactive: 11.6%. With `Cc1ccc(Nc2sc(C(=O)c3ccccc3)c(N)c2S(=O)(=O)c2ccccc2)c(C)c1` the activation was inactive: -14.4%. In the case of `COc1ccc(-n2ncc(C(=O)Nc3ccc4c(c3)OCCO4)c2C2CCN(C(=O)OC(C)(C)C)CC2)cc1`, the activation is reported as inactive: 3.29%. For `CCOc1ccc(CNC(=O)C2CCCN(S(=O)(=O)N(CC)c3ccc(OCC)cc3)C2)cc1` (stereo not drawn), the activation was inactive: -18.3%. With `CCCSc1ncc(Cl)c(C(=O)Nc2c(C(=O)c3ccc(F)cc3)oc3ccccc23)n1` the activation was inactive: -3.39%. With `O=C(NCCc1ccccc1)c1ccc2c(c1)CCN2S(=O)(=O)c1ccccc1` the activation was inactive: -10.6%. For `Cc1ccc(S(=O)(=O)N2CCC(C(=O)Nc3ccc(Oc4ccccc4)cc3)CC2)cc1`, the activation was inactive: 10.7%. With `CCN(C(=O)Cn1nc(Cc2ccncc2)c2ccccc2c1=O)c1cccc(C(F)(F)F)c1` the activation was inactive: -23.4%. For `CC(C)Cn1c(=O)c2ccccc2n2c(CCC(=O)Nc3ccc(F)c(F)c3)nnc12`, the activation was inactive: 1.53%. For `CCOC(=O)c1c(NC(=O)C(C)Oc2ccc(Cl)c(C)c2)sc2c1CCCC2` (stereo not drawn), the activation was inactive: -16.2%. With `Cc1nn2c(=O)cc(COC(=O)c3ccc(NC(=O)c4cccs4)cc3)nc2s1` the activation was inactive: 7.62%. For `O=C(Cn1cc(S(=O)(=O)Cc2ccccc2F)c2ccccc21)NCc1ccccc1Cl`, the activation was inactive: -7.41%. For `Cc1cc(C)cc(NC(=O)CN2C(=O)CCc3cc(S(=O)(=O)N4CCCCC4)ccc32)c1`, the activation was inactive: -28.4%. For `CC(C)CSc1ccccc1NC(=O)c1sc2nc(-c3ccncc3)ccc2c1N`, the activation was inactive: -10.9%. For `CCN(c1cc(C)cc(C)c1)S(=O)(=O)c1nnc(NC(=O)c2ccco2)s1`, the activation was inactive: 9.44%. For `COc1ccc(NC(=O)CCN2CCN(CCO)CC2)cc1`, the activation was inactive: -1.94%. For `COc1ccc2[nH]cc(CCNC(=O)c3cnn(-c4ccccc4Cl)c3C3CCN(C(=O)OC(C)(C)C)CC3)c2c1`, the activation was inactive: -23.4%. For `Cc1nc2c(C(=O)NCCc3ccccc3)c[nH]n2c(=O)c1Cc1ccc(F)cc1Cl`, the activation was inactive: 39.9%. With `Cc1ccc(NC(=O)Cn2nnc(-c3nc(-c4ccc(Cl)cc4)no3)c2N)cc1C` the activation was inactive: 13.2%. With `Cc1cccc(N2CCN(C(=O)c3ccc(NC(=O)c4nsc5ccccc45)cc3)CC2)c1C` the activation was inactive: -12.7%. In the case of `CCOc1ccc(C(=O)Nc2ccc(-c3nc4ccccc4s3)c(C)c2)cc1OCC`, the activation is reported as inactive: 3.63%. With `O=C(O)CCCCC(=O)O` the activation was inactive: 16.4%. For `O=C1c2[nH]nc(-c3ccccc3O)c2C(c2ccc(Cl)cc2)N1CCc1ccccc1` (stereo not drawn), the activation was inactive: 49.4%. `CCOCN(C(=O)Cn1c(CC(C)C)nc2ccccc21)c1c(C)cccc1CC` was tested, and the activation was inactive: 33.7%. In the case of `CCOc1ccccc1Nc1ncnc2c1c(-c1ccccc1)cn2-c1ccc(OC)cc1`, the activation is reported as inactive: -40.2%. With `CC(C)c1ccc(NC(=O)C(NS(=O)(=O)c2ccc3c(c2)CCC(=O)N3)c2ccccc2)cc1` (stereo not drawn) the activation was inactive: 0.708%. In the case of `Cn1c(=O)cc(OCC(=O)N2CCN(c3ccc(F)cc3)CC2)c2ccccc21`, the activation is reported as inactive: -24%. With `COc1cc(OC)cc(-c2cc3nc(C)c(CCC(=O)Nc4ccc(F)c(Cl)c4)c(C)n3n2)c1` the activation was inactive: -11.8%. In the case of `Cc1c(Cl)cccc1NC(=O)C(C)N(c1ccccc1)S(C)(=O)=O` (stereo not drawn), the activation is reported as inactive: 4.29%. `CCc1ccc(NC(=O)N(Cc2cn(CC)c3ccccc23)C2CCCCC2)cc1` was tested, and the activation was inactive: -4.03%. With `Cc1cc(C)cc(NC(=O)c2ncn(-c3ccccc3)n2)c1` the activation was inactive: 42.4%. With `CCc1ccc(NC(=O)COCc2cc(-c3ccc(F)cc3)on2)cc1` the activation was inactive: -4.54%. For `O=C(CSCc1cnn(-c2ccccc2)c1-n1cccc1)NCc1ccccc1Br`, the activation was inactive: -19.6%. In the case of `O=S(=O)(c1ccccc1)c1nc(-c2ccccc2)oc1N1CCN(c2cccc(Cl)c2)CC1`, the activation is reported as inactive: -19.9%. For `Cc1ccc(-c2cn3cccnc3n2)cc1NC(=O)Cc1ccccc1`, the activation was inactive: -10.9%. In the case of `CC(=O)N1c2ccc(S(=O)(=O)NCC3CCC(C(=O)Nc4ccc(F)cc4)CC3)cc2CC1C` (stereo not drawn), the activation is reported as active: 68%. In the case of `CCOC(=O)c1c(C)[nH]c(C)c1S(=O)(=O)N1CCN(c2ccc(Cl)cc2)CC1`, the activation is reported as active: 68%. For `COc1ccc(Cc2nc3ccc(C(=O)NCCc4ccccc4)cc3o2)cc1`, the activation was inactive: -23.9%. With `CCc1ccccc1-n1c2c(cc(-c3nc(-c4ccc(Cl)cc4)cs3)c1=O)C(=O)CC(C)(C)C2` the activation was inactive: 3.85%. With `COc1ccc(CNC(=O)c2ccc3c(c2)CCN3S(=O)(=O)c2ccc(Cl)cc2)cc1` the activation was inactive: -6.93%. For `Cc1ccc(-c2nn3c(=O)cc(CN4CCN(S(=O)(=O)c5ccc(Cl)cc5)CC4)nc3s2)cc1`, the activation was inactive: -3.42%. With `COc1cccc(NC(=O)C2CCN(c3cc(C)nc4c(-c5ccc(Cl)cc5)c(C)nn34)CC2)c1` the activation was inactive: -2.14%. For `O=C(COc1ccc(F)cc1)NC1CC(=O)N(c2ccc3c(c2)OCCO3)C1` (stereo not drawn), the activation was active: 115%. For `COc1cc2nc(SCC(=O)Nc3cccc(C)c3)n3nc(CCn4c(C)nc5ccccc54)nc3c2cc1OC`, the activation was inactive: -5.97%. `CC(NC(=O)C1=Cc2ccccc2OC1)c1ccccc1` (stereo not drawn) was tested, and the activation was inactive: 1.33%. In the case of `CC(=O)Nc1ccc(NC(=O)Cn2c(=O)ccc3cc(S(=O)(=O)N4CCC(C)CC4)ccc32)cc1`, the activation is reported as inactive: -21.4%. For `COC[C@@H](c1ccc(C(F)(F)F)cc1)N1CCN(C2(C)CCN(C(=O)c3c(C)ncnc3C)CC2)C[C@H]1C`, the activation was inactive: -5.91%. With `CCOc1ccc(OCC)c(NS(=O)(=O)c2ccc3[nH]c(=O)ccc3c2)c1` the activation was inactive: -1.71%. `Cc1cc(C)cc(NC(=O)CCS(=O)(=O)c2ccc3c(c2)oc(=O)n3C)c1` was tested, and the activation was inactive: -10.6%. `COC(=O)c1ccc2c(=O)n(CCCCCC(=O)NC(C)C)c(=O)[nH]c2c1` was tested, and the activation was inactive: -26.2%. In the case of `O=C(NCc1ccccc1)N1CCc2c(sc3c2CCCC3)C1c1ccccc1` (stereo not drawn), the activation is reported as inactive: -16.1%. For `O=C(Nc1nnc2n1CCS2)c1ccccc1`, the activation was inactive: -57.1%. In the case of `Cc1ccc(Cl)cc1NC(=O)N1CCc2cc(S(=O)(=O)N3CCC(C)CC3)ccc21`, the activation is reported as inactive: -27.4%. `Cc1cccc(-n2ncc3c(N4CCN(CCO)CC4)ncnc32)c1` was tested, and the activation was inactive: 36.4%. `CCOc1ccc(C(=O)Nc2ccc3nc(SCC(=O)N(C)c4ccccc4)sc3c2)cc1` was tested, and the activation was inactive: -3.95%. `CCOC(=O)c1cc(-c2ccc(OC)cc2)n(CCC(=O)Nc2ccc(OC)cc2OC)c1C` was tested, and the activation was inactive: -24.6%. For `CCOc1ccc(/C=C/c2nc3ccccc3n2S(=O)(=O)c2cccc(Cl)c2)cc1`, the activation was active: 69.8%. `COc1ccccc1CNC(=O)c1ccc(Nc2nc3ccccc3n3nnnc23)cc1` was tested, and the activation was inactive: -6.45%. `CC1CCN(S(=O)(=O)c2ccc3nc(Nc4cccc(C(F)(F)F)c4)ccc3c2)CC1` was tested, and the activation was inactive: -4.05%. In the case of `COc1cccc(-c2nc(SCC(=O)NC3CCCC3)c(-c3ccc(F)cc3)[nH]2)c1`, the activation is reported as inactive: -13%. For `CC(C)c1ccc(/C=C(\C#N)c2nc(-c3cc4ccccc4oc3=O)cs2)cc1`, the activation was inactive: 12.5%. `O=C(CCCCCCCCC#CI)Oc1ccccc1` was tested, and the activation was inactive: 6.26%. With `COc1ccc(C2=C(C)C(=O)N(Cc3ccc(C(=O)Nc4ccc(C)c(C)c4)cc3)S2(=O)=O)cc1` the activation was inactive: 16.1%. With `COc1cc(Cl)c(C)cc1NS(=O)(=O)c1c(C)nc2sccn2c1=O` the activation was inactive: -11.7%. `COC(=O)c1ccc(Nc2ncnc3c2cnn3-c2ccccc2)cc1` was tested, and the activation was inactive: -11.4%. `CCOC(=O)CCn1cnc2onc(-c3ccccc3Cl)c2c1=O` was tested, and the activation was inactive: -4.44%. `CCOc1ccccc1NC(=O)C1=C(C)Nc2ncnn2C1c1ccccn1` (stereo not drawn) was tested, and the activation was inactive: 18.9%. With `CCOC(=O)C1(C)C=C(Nc2cccc(C)c2)C(=O)N1c1ccccc1` (stereo not drawn) the activation was inactive: 2.51%. `Cc1ccc(CNC(=O)c2nc(S(=O)(=O)Cc3ccc(C)cc3)ncc2Cl)cc1` was tested, and the activation was inactive: 41.3%. For `COc1cc(-c2nnc(SCC(=O)Oc3ccc(C)cc3C)o2)cc(OC)c1OC`, the activation was inactive: -9.8%. `Cc1cc(C)cc(NC(=O)CCCn2nc(C)c3c(C)n(-c4ccccc4)nc3c2=O)c1` was tested, and the activation was inactive: -6.48%. In the case of `COc1cc(NC(=O)CCc2c(C)nc3c4c(C)cc(C)nc4nn3c2C)cc(OC)c1`, the activation is reported as inactive: 26.2%. With `COc1ccc(NC(=O)CN(c2ccccc2OC)S(C)(=O)=O)c(OC)c1` the activation was inactive: -2.29%. With `Cc1cccc(OCC(=O)Nc2ccccc2C(=O)OCc2cc(=O)n3nc(C4CC4)sc3n2)c1` the activation was inactive: -2.51%. `CC(=O)c1cccc(NC(=O)CSc2nc3c(=O)n(C)c(=O)n(C)c3n2C)c1` was tested, and the activation was inactive: -13.3%.

Reference: PubChem BioAssay AID1346428 (National Center for Advancing Translational Sciences (NCATS), 2018)
Note: 0% is about no effect.
